Source: the supplement of paper PMC5499739
Over roughly 16,000 sequences, “Z-score” has its median near -0.37; the highest 2% begin near 3.1. This is one part of the list.

Test system: RBM10 RRM1-ZnF-RRM2 (GST-tagged construct)
Experiment: RNAcompete 7-mer binding Z-score; higher = stronger binding preference
In short: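 Bound RNA was identified by microarray hybridisation after GST-tagged RBM10 constructs (20 pmol) had been mixed with 1.5 nmol of a designed pool of 241 399 RNAs up to 41 nt, transcribed from microarray-derived DNA templates. Binding ran for 30 min at 4°C in 1 ml Hepes pH 7.8 buffer with KCl, NaCl, glycerol, DTT, BSA and glutathione Sepharose beads, with four 2-min washes at 4°C afterwards. For every heptamer motif, a one-sided Z-score for enrichment was computed across the probes that contained it.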

Sequence | RNAcompete 7-mer binding Z-score
AUAAUUU | -0.755
GUCGUAC | 0.0823
GUCUAAC | -0.486
CGGGAUA | 1.44
ACCAAGC | -0.471
GAACCUU | -0.788
CAUCGGA | -0.315
AGGCUUA | -0.431
CCUCCUA | -0.763
GGAACGG | 4.03
UCGGAGG | 1.2
AGCGGGC | 1.57
UUCAUGU | -0.632
GACUAAA | -0.191
AUCACGU | -0.395
GUCAAAU | -0.395
AUCGACU | -0.865
AAAAUCA | -0.3
GAGCAGC | 0.119
CGGAACA | 0.548
UGCUUAA | -0.763
ACUAUAG | -0.195
UUAUCUA | -0.61
UCGCCAC | -0.734

Sequence | RNAcompete 7-mer binding Z-score
ACGGUAC | 0.472
AUCGGGG | 2.49
CUGACUU | -0.941
AUCCGGU | -0.202
CAUGCAU | -0.65
GUAUGGG | 4.06
AGUCAUC | -0.679
AACGCGG | 0.457
CAGUUGU | -0.643
UCCUCCA | -0.744
UGGGCUU | 0.854
ACAAGAC | -0.275
GCACUGG | 0.72
ACGCGUA | -0.0452
GGGUAGC | 2.69
AAGAAUG | 1.09
GACUUUG | -0.708
AGGAACC | -0.0707
AAUAGGG | 3.5
GAUCCAA | -0.464
AAAUGUA | 0.0859
CAUGCGG | 0.341
GGCCAUG | 0.181
GCAACAC | -0.326

Sequence | RNAcompete 7-mer binding Z-score
UAGGAUA | 1.73
CAUGUGA | 0.101
UCAUGUU | -0.431
UGGGUGU | 2.62
GUAACCA | 0.00944
GCGUCAC | -0.118
AACGAAA | 0.0786
ACUCCAU | -0.748
AGACUUA | -0.81
CCUCCAC | -0.712
AAGUCUC | -0.752
UUUUUCC | -0.748
AUCAGUU | -0.413
AUUGGUU | 0.752
UCCGGCU | -0.719
CGCUCUA | -0.723
AGUCGUA | 0.25
UAGUAUG | 0.00944
CCGUGCG | -0.264
CUUGCAU | -0.919
UAAGAAU | -0.067
GAGCUAU | -0.202
UGGUAAA | 1.02
ACACGUU | -0.65

Sequence | RNAcompete 7-mer binding Z-score
UUGCGUA | -0.26
CCGGUCG | -0.482
CAGAAGG | 2.37
UCAUACC | -0.748
AGGUUUU | 0.396
UAAGGUC | 0.508
UUUUAGC | -0.686
UCUAGAU | -0.657
UUAAGUG | -0.00148
GAUUAUG | 0.326
CGGGCGG | 2.94
AUGGGGU | 3.91
CUACAAU | -0.661
UUACCUC | -0.795
ACCUGCG | -0.785
CUUCCCG | -0.832
AGUUCUG | -0.599
ACGGUUG | 1.31
CCAAAAU | -0.646
CCUGAAA | -0.715
GGCCUGA | -0.42
UCCUCGU | -0.61
UCGGUAA | 0.363
UCUGGUA | -0.475

Sequence | RNAcompete 7-mer binding Z-score
CGUCUAA | -0.57
UCGACAA | -0.289
AUCAAAU | -0.694
GAGACCA | -0.027
GCUACGU | -0.205
UGGGGCG | 2.66
CUCAUUC | -0.923
CUGCAUU | -0.788
GAAAUCU | -0.46
GGUAUUC | 0.243
GCACACU | -0.49
CCUAAUC | -0.876
AUAAAAC | -0.355
CAAGCCC | -0.806
CGGCAUC | -0.304
GGCGCAC | 0.17
AAAACCG | -0.413
AAAUAAG | 0.202
CAUGUCC | -0.763
UAUGUGC | -0.198
ACAACUU | -0.708
AACCCAA | -0.493
UUUGCAU | -0.708
ACCUUUC | -1.01

Sequence | RNAcompete 7-mer binding Z-score
GCGCAAC | -0.275
AAUACCA | -0.311
ACCAGGG | 1.81
GCUCCAC | -0.675
CCGCUAC | -0.868
GACCGAA | -0.639
CCAGCAU | -0.686
UUGAGGA | 1.04
CCACCGA | -0.49
AGACGGA | 1.04
AACUAAC | -0.679
CAGUAUC | -0.318
UACCACU | -0.566
GAAAGCU | 0.0896
CUUUGCA | -0.806
UAUGCGG | 0.836
CCUUGAA | -0.788
GCCAACA | -0.289
UAUUUGC | -0.752
CGCCUGU | -0.901
CUGCUAU | -0.752
UUGAACG | 0.024
CAAUGAU | -0.111
CGACUUC | -0.865

Sequence | RNAcompete 7-mer binding Z-score
ACUCGGC | -0.73
AAACGGC | 0.37
CCCUCCA | -0.912
AAGUUCG | -0.395
AGACAGA | -0.162
GUACUAG | 0.111
ACGCGGA | 0.516
UACAUAU | -0.457
AAGUACA | 0.0786
AUGUUGU | -0.373
UUCAGUC | -0.628
CGGGGUA | 3.42
GGGUAUC | 2.16
CGUUCUU | -0.774
AUUUGCU | -0.806
GAAGCAC | -0.0853
AAGAGCA | 0.516
GUAGACU | -0.358
CGACUUA | -0.624
CACGUUC | -0.719
CUCCGAG | -0.555
CGAUCGC | -0.69
CACCGUU | -0.628
UGGUUUC | 0.399

Sequence | RNAcompete 7-mer binding Z-score
CCCGCCG | -0.741
UAUUAUU | -0.632
CUACAGG | 0.341
UUUCAUG | -0.417
AUCUAGC | -0.573
AGUUCAU | -0.723
GACUCCA | -0.704
CGAGUCC | -0.785
AUGUCGG | 0.396
AUACGAG | 0.181
UGUCCUU | -0.883
AAAUAUC | -0.643
AAGCAGG | 2.17
GUUAACG | 0.447
AACUGAA | -0.388
CAAGACA | -0.275
CUAUCUG | -0.788
GUACGUA | 0.454
UCGCUCU | -0.646
UGGGCUA | 1.26
UCGACAG | -0.213
UGUCGAA | -0.362
GGAAGAA | 1.99
UGUUGCA | -0.296

Sequence | RNAcompete 7-mer binding Z-score
CGUUCUC | -0.763
AAACAUC | -0.592
ACUCUGA | -0.908
ACUGCCA | -0.646
AUGUACC | -0.435
AGAGUAG | 1.31
GCGACAC | -0.027
UAGGGGG | 3.4
GCCUGCC | -0.541
UGCCUAU | -0.766
UCUGAAG | -0.562
UCACUGU | -0.584
UUCCACU | -0.701
GCCUCGG | -0.187
GAGAGCU | 0.447
ACAUUUC | -0.806
AACAUGA | -0.147
CCAGUGA | -0.027
CUGCCGC | -0.821
GACGUGC | -0.26
AACGUGC | 0.0386
ACGGAUA | 1.72
AUGAUAG | 0.807
CUACGAA | -0.428

Sequence | RNAcompete 7-mer binding Z-score
GACAAGU | 0.148
UUCACAG | -0.541
CUCUAAU | -0.774
GCCGUCC | -0.541
AUAAGCA | 0.0641
GGCAGAG | 2.18
UUGUUCC | -0.664
UCAGACU | -0.555
CCAUCCU | -0.839
GAGCAAG | 1.42
CCUGUGG | 0.141
CGGUUUA | -0.0488
UCUCCGA | -0.836
AUAAUAG | 0.243
UGAAAUC | -0.38
ACAAUAG | 0.607
CAGGGAG | 3.08
ACGGAGU | 1.32
